PubChem BioAssay AID686978 (National Center for Advancing Translational Sciences (NCATS), 2013)
The whole screen tested about 420,000 compounds, of which about 64,000 (15%) were called active. Inconclusive results, whose numbers are uncertain, are shown with a selection of clear calls. Calls come from the whole dose curve; as a rule, active = well fitted inhibition curve with a large enough effect; inconclusive = small, poorly fitted or top-dose-only effect; inactive = flat fitted curve, though single readings scatter. No potency is given beside an inconclusive call; the fits are too rough.

test: qHTS for Inhibitors of human tyrosyl-DNA phosphodiesterase 1 (TDP1): qHTS in cells in absence of CPT; conditions: DT40 Tdp1-/- hTDP1 cells, no CPT, ATP luminescence, 48 h; activity change, negative = growth inhibition: at 46.2 µM (top of the series); note: nearly all actives have a fitted effect of over 55% in size
How it was run: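 Stably hTDP1-transfected Tdp1-null chicken DT40 cells were treated with library compounds minus camptothecin and grown for at least 48 hr at 37 °C, after which cellular ATP was quantified by luminescence.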
% is set by controls: 0 for no effect and ±100 for the full control effect; potency is the fitted concentration of half-maximal effect; tags give direction and shape of the fitted curve.

Row | Structure (SMILES) | Potency | activity change, negative = growth inhibition
1 | CC(=O)Nc1ccc(CN2CCCC(C(=O)c3ccc(C(F)(F)F)cc3)C2)cc1 (stereo not given) | inconclusive [inhibitor, single point] | 
2 | CCC1CC2(C)NC(=O)c3c(sc4c3CC(C)(C)OC4)N2C1=O (stereo not given) | active: 20.6 µM | 
3 | c1ccc(N2CCN(Cc3cccn3-c3nnc(N4CCN(C5CCCCC5)CC4)s3)CC2)cc1 |  | inactive: -5%
4 | CCCCCNC(=O)C(C#N)c1nc2ccccc2nc1N1CCCC1 (stereo not given) | inconclusive [inhibitor, full curve, poor fit] | 
5 | COc1ccc(CCn2c(=N)c(C(=O)NC3CCCCC3)cc3c(=O)n4ccccc4nc32)cc1 | active: 4.11 µM | 
6 | Cn1c(=O)c2cc(NC(=O)NCCc3cccs3)ccc2n1C/C=C/c1ccccc1 | inconclusive [inhibitor, single point] | 
7 | CCc1ccccc1NS(=O)(=O)c1ccc2c(c1)CCN2C(=O)C1CC1 | inconclusive [inhibitor, single point] | 
8 | CCOc1ccc(CCNC(=O)c2nn(-c3ccc(OC)c(Cl)c3)c(=O)c3c2c2ccccc2n3C)cc1OCC | inconclusive [inhibitor, partial curve] | 
9 | O=C(NCCS(=O)(=O)NCc1ccc(Cl)cc1)c1ccccc1 |  | inactive: -6.22%
10 | O=C(Nc1ccc(Cl)cc1)Nc1ccc(-c2cnco2)cc1 |  | inconclusive: -31.8% [inhibitor]
11 | CCN(CC(=O)NCc1cccs1)C(=O)Cc1ccc(Cl)c(Cl)c1 | inconclusive [inhibitor, single point] | 
12 | O=C(NCC(F)(F)F)c1cc2c(c(-c3cccc(-c4ccccc4F)c3)n1)[C@H](CCO)N(C(=O)CC1CC1)C2 | active: 20.6 µM | 
13 | COc1ccc(/C=C\C(=O)CC(O)(c2ccccc2)C(F)(F)F)cc1 (stereo not given) | active: 14.6 µM | 
14 | CS(=O)(=O)N1CCN(c2ccc([N+](=O)[O-])c(NCc3cccnc3)c2)CC1 | inconclusive [inhibitor, partial curve, poor fit] | 
15 | N#Cc1ncc(C(F)(F)F)cc1Sc1ccccc1N | inconclusive [inhibitor, partial curve] | 
16 | Brc1cccc(-c2nnc3sc(CN4CCCCC4)cn23)c1 | inconclusive [inhibitor, partial curve] | 
17 | COc1cccc(CNc2nc3cc(-c4ccccc4C)sc3c(=O)n2C)c1OC | active: 23.1 µM | 
18 | O=C(CCl)N(c1ccccc1)c1ccccc1 | active: 1.84 µM | 
19 | CC(C)OC(=O)c1cc(Cl)c(=O)n(Cc2ccc(Cl)cc2Cl)c1 | inconclusive [inhibitor, partial curve, poor fit] | 
20 | Cn1c(/C(C#N)=C(\O)c2ccc([N+](=O)[O-])cc2)nc2ccccc21 | active: 18.4 µM | 
21 | CCS(=O)(=O)N1Cc2ccccc2CC1C(=O)Nc1ccc(F)cc1 (stereo not given) |  | inactive: -3.37%
22 | COc1ccc2c(c1)C(=NN)c1cc(OC)ccc1-2 | inconclusive [inhibitor, partial curve] | 
23 | Cc1nn(-c2ccccc2)c(-n2cccc2)c1C(=O)NCCc1ccc(Cl)cc1 | inconclusive [inhibitor, single point] | 

Row | Structure (SMILES) | Potency | activity change, negative = growth inhibition
24 | CC(=O)N1CCN(c2nc3ccc(Br)cc3s2)CC1 | inconclusive [inhibitor, single point] | 
25 | C=CCOC(=O)C1=C(C)NC(SCC(=O)N(CC)CC)=C(C#N)C1c1ccco1 (stereo not given) | inconclusive [inhibitor, partial curve] | 
26 | COc1cccc(C(=O)Nc2cccnc2)c1OC |  | inactive: 3.25%
27 | Cn1c(=O)c2cc(C(=O)NCCCN3CCN(c4cccc(Cl)c4)CC3)sc2c2ccccc21 | active: 2.91 µM | 
28 | O=C(C1CCN(c2ncnc3c2nc2n3CCCCC2)CC1)N1CCCCC1 | inconclusive [inhibitor, full curve, poor fit] | 
29 | COc1cc(C(=O)Nc2nc3ccc(C)cc3s2)ccc1OCc1c(C)noc1C | active: 17.8 µM | 
30 | COCOCCn1cc(CN2CCS(=O)(=O)N(Cc3ccc(-c4ccc(Cl)nc4)cc3)C(CC(C)C)C2=O)nn1 (stereo not given) | inconclusive [inhibitor, single point] | 
31 | O=C(NCc1ccc(F)cc1)c1ccc(Br)o1 |  | inactive: -20.6%
32 | O=C(Nc1ccc(Cl)cc1)Nc1cccc(C(=O)O)c1 |  | inactive: -7.08%
33 | CC(C)n1nc(C(=O)NNC(=O)c2ccc(OC(F)F)cc2)c2ccccc2c1=O | inconclusive [inhibitor, single point] | 
34 | CCOc1cc(N2CCOCC2)c(OCC)cc1NC(=O)c1ccc(C)s1 | active: 2.06 µM | 
35 | Cc1cc(C)c(C(=O)c2ccccc2C(=O)O)c(C)c1 | inconclusive [inhibitor, partial curve, poor fit] | 
36 | CCC(=O)c1c[nH]c(C(=O)NCCCn2ccnc2)c1 |  | inactive: -14.7%
37 | CC(C)CN1CC(C(=O)O)CC1=O (stereo not given) |  | inactive: -5.1%
38 | CCCCCC(O)(CCN1CCCCC1)c1ccccc1 (stereo not given) | inconclusive [inhibitor, single point] | 
39 | CC(C)Cn1c(=O)c2sccc2n2c(CCCC(=O)NCCc3ccc(Cl)cc3)nnc12 | inconclusive [inhibitor, single point] | 
40 | CSc1ccccc1NC(=O)CN(C)C(=O)CNC(=O)c1ccc(Oc2ccccc2)cc1 | inconclusive [inhibitor, single point] | 
41 | CCc1ccc2[nH]c(O)c(N=Nc3nc(-c4ccccc4)cs3)c2c1 | inconclusive [inhibitor, partial curve, poor fit] | 
42 | Cc1ccc(S(=O)(=O)N2CCN(C(=O)CSc3ccc(Cl)cc3)CC2)cc1 |  | inconclusive: -33.4% [inhibitor]
43 | CC(C)NC(=O)c1ccc(-n2c(-c3ccccc3)cc3c2CCCC3)cc1 | inconclusive [inhibitor, single point] | 
44 | COc1ccc(CC(=O)Nc2ccc(-c3noc(-c4ccc(Cl)cc4)n3)cc2)cc1 | inconclusive [inhibitor, partial curve] | 
45 | COc1ccccc1CNC(=O)C1=C(C)C(=O)OC12CCC(C)CC2 (stereo not given) | inconclusive [inhibitor, single point] | 
